Assay results reported in article PMC4336329 (PLoS ONE, 2015).
Out of some 310,000 compounds screened, about 14,000 (4.5%) showed an effect of 50% or more. Effects have a minus sign here. This is one part of the list.

target: human ether-à-go-go-related gene (hERG) potassium channel (human, UniProt Q12809); test: primary screen, population patch clamp on CHO cells stably expressing hERG
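Note: peak tail current of the secondary pulse compared with the same well before compound.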

Sequence of human ether-à-go-go-related gene (hERG) potassium channel (Q12809 whole entry, looked up): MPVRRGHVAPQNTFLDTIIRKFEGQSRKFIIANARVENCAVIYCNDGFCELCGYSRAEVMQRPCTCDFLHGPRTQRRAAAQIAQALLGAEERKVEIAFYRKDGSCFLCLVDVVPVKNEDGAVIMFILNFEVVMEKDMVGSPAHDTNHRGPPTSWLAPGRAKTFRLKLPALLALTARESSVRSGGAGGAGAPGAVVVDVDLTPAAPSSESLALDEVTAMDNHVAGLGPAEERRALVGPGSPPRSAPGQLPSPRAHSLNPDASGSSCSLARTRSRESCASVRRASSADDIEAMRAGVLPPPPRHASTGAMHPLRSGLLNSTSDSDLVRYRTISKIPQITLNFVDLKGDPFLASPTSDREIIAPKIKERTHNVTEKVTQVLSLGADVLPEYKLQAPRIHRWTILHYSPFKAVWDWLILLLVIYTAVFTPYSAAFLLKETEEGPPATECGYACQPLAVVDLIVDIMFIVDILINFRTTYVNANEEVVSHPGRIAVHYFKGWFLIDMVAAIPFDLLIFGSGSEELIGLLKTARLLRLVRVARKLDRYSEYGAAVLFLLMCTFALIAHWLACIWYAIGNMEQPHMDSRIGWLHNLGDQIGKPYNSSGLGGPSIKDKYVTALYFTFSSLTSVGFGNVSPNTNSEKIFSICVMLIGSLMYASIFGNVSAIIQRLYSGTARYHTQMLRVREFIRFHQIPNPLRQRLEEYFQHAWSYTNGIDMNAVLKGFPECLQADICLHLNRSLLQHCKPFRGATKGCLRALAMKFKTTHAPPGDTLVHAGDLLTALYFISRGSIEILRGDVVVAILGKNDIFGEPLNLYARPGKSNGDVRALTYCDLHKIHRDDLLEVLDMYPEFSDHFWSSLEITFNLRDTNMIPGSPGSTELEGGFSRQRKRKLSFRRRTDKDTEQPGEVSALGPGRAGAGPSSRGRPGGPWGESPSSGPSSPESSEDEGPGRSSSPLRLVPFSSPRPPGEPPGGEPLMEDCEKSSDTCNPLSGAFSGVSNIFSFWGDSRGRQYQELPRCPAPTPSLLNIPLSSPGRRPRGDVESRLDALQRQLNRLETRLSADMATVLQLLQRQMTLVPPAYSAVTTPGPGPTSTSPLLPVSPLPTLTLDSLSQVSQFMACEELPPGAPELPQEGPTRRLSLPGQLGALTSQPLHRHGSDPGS

In order of rising “hERG current change (%, negative = inhibition) at 10uM” value:
1. O=C1NCN(c2ccccc2)C12CCN(CCCC(c1ccc(F)cc1)c1ccc(F)cc1)CC2  -75.8%
2. CN1CCN(C(=O)C2=C[C@H](C3CCCCC3)C[C@H](OCc3ccc(CO)cc3)O2)CC1  -61.7%
3. O=C(CCNc1ccc(Cc2ccncc2)cc1)c1ccc([N+](=O)[O-])cc1  -56.8%
4. CC(C)NC(=O)C1CCN(C2CCN(Cc3nc(C(C)C)cs3)CC2)CC1  -49.5%
5. COc1ccc(N2CCN(C(=O)c3cc4c(C)nc5ccccc5c4o3)CC2)cc1  -47%
6. Cc1ccc(NC(=O)C(c2ccccc2)N2CCN(CC(=O)N3CCOCC3)CC2)cc1 (stereo not shown)  -43%
7. COc1ccc(C(=O)N2CCc3ccccc32)cc1S(=O)(=O)N1CCOCC1  -26.5%
8. Cc1ccc(C)c(OCCC(=O)OCC(=O)Nc2ccc(Cl)cn2)c1  -26.3%
9. N#Cc1c2n(c(=S)n(-c3ccccn3)c1=O)CCCCC2  -24.2%
10. O=C(Nc1ccc(F)cc1F)c1ccc(-n2cccn2)c([N+](=O)[O-])c1  -13.3%
11. O=C(c1sccc1Br)N1CCN(Cc2ccc3c(c2)OCO3)CC1  -11%
12. Cc1ccc(C(=O)Nc2cccc3ncccc23)cc1[N+](=O)[O-]  -9.03%
13. CN(CCCN1CCOCC1)Cc1nc(-c2ccccc2)no1  -9.02%
14. O=C(N/N=C/c1ccc(C(F)(F)F)cc1)c1ccc(O)cc1  -7.8%
15. Cc1cccc(Cc2nnc(CCC(=O)N3CCCCC3c3nccs3)o2)c1 (stereo not shown)  -7.23%
16. CCNC(=S)NS(=O)(=O)c1ccc(C)cc1  -6.57%
17. O=C(Nc1ccc2nc(C3CC3)n(Cc3ccccc3)c(=O)c2c1)C1CC1  -6.15%
18. COc1cc(S(=O)(=O)Nc2ccc(Br)cc2)ccc1N  -6.01%
19. COc1ccc(NS(=O)(=O)c2cc(NC(=O)CC3CCCC3)ccc2N2CCOCC2)cc1  -3.69%
20. Nc1nc(-c2cccnc2)nn1C(=O)CCc1ccccc1  -2.14%
21. O=C1CCC/C1=C\c1ccccc1  -1.9%
22. CCOC(=O)N/N=C/c1cn(Cc2ccccc2Cl)c2ccccc12  -1.51%
23. CCc1cc(=O)oc2c(C)c(O)c(CN3CCCCC3)cc12  -0.833%
24. CC(=O)c1sc(NC(=O)c2oc3ccc(F)cc3c2C)nc1C  0.318%
25. COC(=O)NNC(=S)Nc1cc(OC)ccc1OC  0.464%
26. COCCN1CCN(C(=O)C2CCC(=O)N(Cc3ccccc3F)C2)CC1 (stereo not shown)  1.48%
27. CN1CCN(C(=O)c2ccccc2NC(=O)c2cccs2)CC1  2.94%
28. CC1CC(C)CN(C(=O)COC(=O)CCc2nc3ccccc3c(=O)[nH]2)C1 (stereo not shown)  3.75%
29. COc1ccc(C2=C(N)c3ccccc3C2=O)cc1  5.02%
30. Br.CC(C)(C)C(=O)Cn1c(NCCO)nc2ccccc21  5.72%
31. COc1ccccc1OCC(=O)NNC(=O)Nc1ccc(Cl)cc1  6.44%
32. COC(=O)Cn1cnc2c(nnn2-c2ccc(F)cc2)c1=O  6.52%
33. CC(=O)N1c2ccc(S(=O)(=O)NCCC(=O)Nc3ncccc3C)cc2CC1C (stereo not shown)  6.75%
34. CN(C)c1nc(-c2ccccc2)nc(-c2ccc(Cl)cc2)c1C#N  8.49%
35. CCC(c1nnnn1CCOC)N1CCN(C(=O)c2ccco2)CC1.Cl (stereo not shown)  9.17%
36. O=C(O)CCC1=C2c3ccccc3CCN2C(=O)CC1  9.77%
37. CC1CC(=O)Nc2ccccc2N1S(=O)(=O)c1cccc(F)c1 (stereo not shown)  9.89%
38. CCOC(=O)CNC(=O)CN1C(=O)CCSc2ccccc21  10.2%
39. Cc1cc(=O)oc(C)c1C(=O)NCc1ccccc1  11.2%
40. CCCCn1c(N)c(N(CC)C(=O)c2ccc(Cl)c(Cl)c2)c(=O)[nH]c1=O  13%
41. O=C(CCC(=O)OCc1ccc([N+](=O)[O-])cc1)Nc1ccccc1Cl  13%
42. Cc1ccc(C(=O)NNC(=O)Cn2ccc(C(F)(F)F)n2)o1  13.2%
43. N#CC1(c2ccccc2)CCC(=O)N1Cc1ccccc1 (stereo not shown)  13.7%
44. C(#CC1CCCC1)c1ccc2c(c1)COc1c3ccccc3nn1-2  14%
45. CCCn1c(N)c(C(=O)CSc2nc(C)nc3sc(C)c(C)c23)c(=O)[nH]c1=O  15.6%
46. CN(C)/C=N/N(C)c1ncccc1[N+](=O)[O-]  16.1%
47. O=C(NNc1cccc(Cl)n1)C(F)(F)F  17.2%
48. COc1ccc(NS(=O)(=O)c2ccc(N)cc2)nn1  17.2%
49. O=C1CCCN1CCCNC(=S)Nc1cccc2ccccc12  17.2%
50. O=C(NC1CCCCC1)C(c1ccc(O)c(O)c1)N(C(=O)Cn1nnc2ccccc21)c1cccc(O)c1 (stereo not shown)  17.7%
51. Cc1ccc(S(=O)(=O)NC(C)C(=O)N2CCOCCOCCOCC2)cc1 (stereo not shown)  18.9%
52. Cc1ccc(C)c(S(=O)(=O)N2CCCOC2CNC(=O)C(=O)NCCN2CCOCC2)c1 (stereo not shown)  19.5%
53. COc1ccc(C(OC(=O)c2ccco2)C(=O)NC2CCCCC2)cc1OC (stereo not shown)  19.8%
54. CC(=O)Oc1ccc2cc(-c3ccccc3)c(=O)oc2c1  21%
55. Cc1ccc(C(=O)Nc2nnc(C)s2)cc1  21.5%
56. Cc1ccc(-c2ccc(CCC(=O)O)n2NC(=O)c2ccc([N+](=O)[O-])cc2)cc1  23.8%
57. C=CCn1c(SCN2C(=O)c3ccccc3C2=O)nc2ccc(Cl)cc2c1=O  24.3%
58. COCCN(Cc1cc2c(C)cc(C)cc2nc1Cl)C(=O)c1ccccc1F  44.3%
